Here are results for ten molecules from US20210238308A1 (Chugai, published 2021).

The target in this assay is T1, human TRIM21 PRYSPRY domain with N-terminal 6xHis tag (human).
T1 construct: Expressed from pET28a in E. coli; also called hTRIM21
T1 chain: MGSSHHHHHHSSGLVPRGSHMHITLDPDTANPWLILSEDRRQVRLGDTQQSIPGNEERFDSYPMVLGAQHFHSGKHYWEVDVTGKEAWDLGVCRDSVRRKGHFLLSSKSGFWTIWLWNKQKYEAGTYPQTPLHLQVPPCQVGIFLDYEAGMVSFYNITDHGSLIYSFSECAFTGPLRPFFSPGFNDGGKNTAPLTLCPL
The experiment in a line: SPR, Ab captured on Protein L, hTRIM21 12.5-200 nM. For orientation: In SPR one partner is held on a chip, and binding of the other changes the refractive index at the surface.

B1: 3D8VH-G1m/hT4VL-KT0.Avi I253M.D312H (antibody, human IgG1, kappa)
heavy: EVQLVESGGGLVQPGGSLRLSCAASGYTFTSYVMHWVRQAPGKGLEWVSAINPYNDGNYYADSVKGRFTISRDNSRKTLYLQMNSLRAEDTAVYYCARGAYKRGYAMDYWGQGTTVTVSSASTKGPSVFPLAPSSKSTSGGTAALGCLVKDYFPEPVTVSWNSGALTSGVHTFPAVLQSSGLYSLSSVVTVPSSSLGTQTYICNVNHKPSNTKVDKKV[human IgG1 Fc with I253M D312H (EU numbers) omitted here]
light: [about 200 residues omitted here]GGGGSGLNDIFEAQKIEWHE
The molecule B1 showed a Kd of 1630 pM, a dissociation rate constant (koff) of 0.00419 s⁻¹ and a kon of 2.57e+06 M⁻¹ s⁻¹.

B2: 3D8VH-G1m/hT4VL-KT0.Avi I253M.T437D (antibody, human IgG1, kappa)
heavy: EVQLVESGGGLVQPGGSLRLSCAASGYTFTSYVMHWVRQAPGKGLEWVSAINPYNDGNYYADSVKGRFTISRDNSRKTLYLQMNSLRAEDTAVYYCARGAYKRGYAMDYWGQGTTVTVSSASTKGPSVFPLAPSSKSTSGGTAALGCLVKDYFPEPVTVSWNSGALTSGVHTFPAVLQSSGLYSLSSVVTVPSSSLGTQTYICNVNHKPSNTKVDKKV[human IgG1 Fc with I253M T437D (EU numbers) omitted here]
light: [about 200 residues omitted here]GGGGSGLNDIFEAQKIEWHE
As to B2, the Kd was 1180 pM, the koff was 0.00343 s⁻¹ and the kon was 2.9e+06 M⁻¹ s⁻¹.

B3: 3D8VH-G1m/hT4VL-KT0.Avi I253Y.N315M (antibody, human IgG1, kappa)
heavy: EVQLVESGGGLVQPGGSLRLSCAASGYTFTSYVMHWVRQAPGKGLEWVSAINPYNDGNYYADSVKGRFTISRDNSRKTLYLQMNSLRAEDTAVYYCARGAYKRGYAMDYWGQGTTVTVSSASTKGPSVFPLAPSSKSTSGGTAALGCLVKDYFPEPVTVSWNSGALTSGVHTFPAVLQSSGLYSLSSVVTVPSSSLGTQTYICNVNHKPSNTKVDKKV[human IgG1 Fc with I253Y N315M (EU numbers) omitted here]
light: [about 200 residues omitted here]GGGGSGLNDIFEAQKIEWHE
Take B3: the dissociation constant Kd was determined as 791 pM, the koff amounted to 0.00219 s⁻¹ and the association rate constant (kon) was determined as 2.76e+06 M⁻¹ s⁻¹.

B4: 3D8VH-G1m/hT4VL-KT0.Avi I253Y.N315Q (antibody, human IgG1, kappa)
heavy: EVQLVESGGGLVQPGGSLRLSCAASGYTFTSYVMHWVRQAPGKGLEWVSAINPYNDGNYYADSVKGRFTISRDNSRKTLYLQMNSLRAEDTAVYYCARGAYKRGYAMDYWGQGTTVTVSSASTKGPSVFPLAPSSKSTSGGTAALGCLVKDYFPEPVTVSWNSGALTSGVHTFPAVLQSSGLYSLSSVVTVPSSSLGTQTYICNVNHKPSNTKVDKKV[human IgG1 Fc with I253Y N315Q (EU numbers) omitted here]
light: [about 200 residues omitted here]GGGGSGLNDIFEAQKIEWHE
As to B4, the Kd turned out to be 870 pM, the koff was 0.00207 s⁻¹ and the kon amounted to 2.38e+06 M⁻¹ s⁻¹.

B5: 3D8VH-G1m/hT4VL-KT0.Avi I253Y.Q438E (antibody, human IgG1, kappa)
heavy: EVQLVESGGGLVQPGGSLRLSCAASGYTFTSYVMHWVRQAPGKGLEWVSAINPYNDGNYYADSVKGRFTISRDNSRKTLYLQMNSLRAEDTAVYYCARGAYKRGYAMDYWGQGTTVTVSSASTKGPSVFPLAPSSKSTSGGTAALGCLVKDYFPEPVTVSWNSGALTSGVHTFPAVLQSSGLYSLSSVVTVPSSSLGTQTYICNVNHKPSNTKVDKKV[human IgG1 Fc with I253Y Q438E (EU numbers) omitted here]
light: [about 200 residues omitted here]GGGGSGLNDIFEAQKIEWHE
In the case of B5, the Kd turned out to be 576 pM, the koff worked out at 0.00235 s⁻¹ and the kon came to 4.08e+06 M⁻¹ s⁻¹.

B6: 3D8VH-G1m/hT4VL-KT0.Avi L314K (antibody, human IgG1, kappa)
heavy: EVQLVESGGGLVQPGGSLRLSCAASGYTFTSYVMHWVRQAPGKGLEWVSAINPYNDGNYYADSVKGRFTISRDNSRKTLYLQMNSLRAEDTAVYYCARGAYKRGYAMDYWGQGTTVTVSSASTKGPSVFPLAPSSKSTSGGTAALGCLVKDYFPEPVTVSWNSGALTSGVHTFPAVLQSSGLYSLSSVVTVPSSSLGTQTYICNVNHKPSNTKVDKKV[human IgG1 Fc with L314K (EU numbers) omitted here]
light: [about 200 residues omitted here]GGGGSGLNDIFEAQKIEWHE
With B6, the Kd was found to be 23300 pM, the koff turned out to be 0.00354 s⁻¹ and the kon stood at 152000 M⁻¹ s⁻¹.

B7: 3D8VH-G1m/hT4VL-KT0.Avi I253Y.T437D (antibody, human IgG1, kappa)
heavy: EVQLVESGGGLVQPGGSLRLSCAASGYTFTSYVMHWVRQAPGKGLEWVSAINPYNDGNYYADSVKGRFTISRDNSRKTLYLQMNSLRAEDTAVYYCARGAYKRGYAMDYWGQGTTVTVSSASTKGPSVFPLAPSSKSTSGGTAALGCLVKDYFPEPVTVSWNSGALTSGVHTFPAVLQSSGLYSLSSVVTVPSSSLGTQTYICNVNHKPSNTKVDKKV[human IgG1 Fc with I253Y T437D (EU numbers) omitted here]
light: [about 200 residues omitted here]GGGGSGLNDIFEAQKIEWHE
In turn, B7 returned a Kd of 889 pM, a koff of 0.00212 s⁻¹ and a kon of 2.39e+06 M⁻¹ s⁻¹.

B8: 3D8VH-G1m/hT4VL-KT0.Avi I253M.M428F (antibody, human IgG1, kappa)
heavy: EVQLVESGGGLVQPGGSLRLSCAASGYTFTSYVMHWVRQAPGKGLEWVSAINPYNDGNYYADSVKGRFTISRDNSRKTLYLQMNSLRAEDTAVYYCARGAYKRGYAMDYWGQGTTVTVSSASTKGPSVFPLAPSSKSTSGGTAALGCLVKDYFPEPVTVSWNSGALTSGVHTFPAVLQSSGLYSLSSVVTVPSSSLGTQTYICNVNHKPSNTKVDKKV[human IgG1 Fc with I253M M428F (EU numbers) omitted here]
light: [about 200 residues omitted here]GGGGSGLNDIFEAQKIEWHE
In the case of B8, the Kd was determined as 1580 pM, the koff came out at 0.00356 s⁻¹ and the kon is 2.25e+06 M⁻¹ s⁻¹.

B9: 3D8VH-G1m/hT4VL-KT0.Avi I253M.Q438E (antibody, human IgG1, kappa)
heavy: EVQLVESGGGLVQPGGSLRLSCAASGYTFTSYVMHWVRQAPGKGLEWVSAINPYNDGNYYADSVKGRFTISRDNSRKTLYLQMNSLRAEDTAVYYCARGAYKRGYAMDYWGQGTTVTVSSASTKGPSVFPLAPSSKSTSGGTAALGCLVKDYFPEPVTVSWNSGALTSGVHTFPAVLQSSGLYSLSSVVTVPSSSLGTQTYICNVNHKPSNTKVDKKV[human IgG1 Fc with I253M Q438E (EU numbers) omitted here]
light: [about 200 residues omitted here]GGGGSGLNDIFEAQKIEWHE
B9: the Kd stood at 901 pM, the koff turned out to be 0.00298 s⁻¹ and the kon was found to be 3.31e+06 M⁻¹ s⁻¹.

B10: 3D8VH-G1m/hT4VL-KT0.Avi I253Y.D312H (antibody, human IgG1, kappa)
heavy: EVQLVESGGGLVQPGGSLRLSCAASGYTFTSYVMHWVRQAPGKGLEWVSAINPYNDGNYYADSVKGRFTISRDNSRKTLYLQMNSLRAEDTAVYYCARGAYKRGYAMDYWGQGTTVTVSSASTKGPSVFPLAPSSKSTSGGTAALGCLVKDYFPEPVTVSWNSGALTSGVHTFPAVLQSSGLYSLSSVVTVPSSSLGTQTYICNVNHKPSNTKVDKKV[human IgG1 Fc with I253Y D312H (EU numbers) omitted here]
light: [about 200 residues omitted here]GGGGSGLNDIFEAQKIEWHE
In turn, B10 had a Kd of 982 pM, a koff of 0.00244 s⁻¹ and a kon of 2.48e+06 M⁻¹ s⁻¹.

What is called Kd is the concentration at which binding is half-saturated. The low end stands for higher affinity, the high end for lower affinity. What is called koff is a measure of how fast the partners let go of each other. A word on the kon: it is a measure of how fast the partners come together. Read a high kon as faster complex formation.
